Test results as given in PMC7275043 (Nature Communications, 2020).

Tests used:
influenza A/PR8 [1] = tested on: influenza A/PR8
[2] = target: T1, PB2 cap-binding domain of influenza A/PR8 (PB2CB) (Influenza A virus, UniProt P03428)
[3] = target: T1, PB2 cap-binding domain of influenza A/PR8 (PB2CB); remark: listed apart in the source
[4] = target: T1, PB2 cap-binding domain of influenza A/PR8 (PB2CB); remark: listed apart in the source
influenza A/PR8 [5] = assay type: cell-based, influenza A/Puerto Rico/8/34 (H1N1)
influenza A/PR8 [6] = assay type: cell-based, influenza A/Puerto Rico/8/34 (H1N1); remark: listed apart in the source
influenza A/PR8 [7] = tested on: influenza A/PR8; set-up: species or system BALB/c mice; details: mouse, in vivo
[8] = target: PB2 cap-binding domain of influenza A/PR8 (influenza A/Puerto Rico/8/34 (H1N1), UniProt P03428 318-483); experiment: BLI; details: both partners purified

## Ac-WDISQVLLIDGSDISQVLLID-NH2 [12Bscr2]
Influenza A/PR8 [1]
  effect on viral replication (area covered by plaques): did not show any effect on viral
[2]
  effect on PB2 cap-binding activity: showed only a mild effect
[3]
  increase of Th-T binding and scattering intensity of PB2CB: not
  structure of peptide-induced PB2CB aggregates (TEM): amorphous structure
[4]
  binding to immobilized PB2CB (BLI): clear binding event

## Ac-WDLIQLIVSDGSDLIQLIVSD-NH2 [12B]
Influenza A/PR8 [1]
  antiviral activity in time of addition assay: unchanged
  reduction of influenza A/PR8 plaque area: ~ 80%
Influenza A/PR8 [5]
  protection against cytopathic effects: acts as an antiviral peptide against influenza A
[2]
  effect on PB2 cap-binding activity: concentration-dependent loss of cap-binding function
[3]
  ANS binding of PB2CB when seeded with peptide: increased binding of 8-anilinonaphtalene-1-sulfonic acid (ANS)
  increase of Th-T binding and scattering intensity of PB2CB: increased Th-T binding and scattering intensity
  structure of peptide-induced PB2CB aggregates (TEM): fiber-like
Influenza A/PR8 [6]
  antiviral effect in multicycle replication assay: acts as an antiviral peptide against influenza A
Influenza A/PR8 [7]
  virus titers in lung homogenates: small but significant reduction
[4]
  Kd of 12B lower compared with 12Bscr2: > 10 fold
  binding to immobilized PB2CB (BLI): clear binding event

## Ac-WDLPQLPVSDGSDLPQLPVSD-NH2 [12Bpro2]
Influenza A/PR8 [1]
  effect on viral replication (area covered by plaques): does not affect viral replication
[2]
  effect on PB2 cap-binding activity: had no effect
[3]
  increase of Th-T binding and scattering intensity of PB2CB: not
  structure of peptide-induced PB2CB aggregates (TEM): amorphous structure
Influenza A/PR8 [7]
  virus titers in lung homogenates: did not show inhibitory effects
[4]
  binding to immobilized PB2CB (BLI): did not show any affinity for PB2CB

B1: peptide 12B (peptide)
peptide: WDLIQLIVSDGSDLIQLIVSD
notes: also called amyloid peptide 12B; synthetic amyloid 12B; source: synthetic peptide
[8]
  Kd: 65.8 ± 0.91 nM
